Test results as given in PubChem BioAssay (NCI).
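Where inhibition never reached the appropriate level, the endpoint shown equals the highest concentration tested. Otherwise, values were interpolated linearly from a five-concentration, 48-hour dose response in 96-well plates. Here, GI50 denotes the concentration required for 50% inhibition of growth. The concentration for full growth arrest is given as TGI.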

Test system: NCI-H322M lung
Test: NCI anticancer screen, dose series, 48 h

`CN(C)c1nc(NCCNS(=O)(=O)c2ccc(C(=O)/C=C/c3ccc(Cl)cc3)cc2)nc(Nc2ccc(F)cc2)n1` gave a GI50 of 9.36 µM and a TGI of 24.9 µM.
